From US20250243260A1 (ALPINE IMMUNE SCIENCES, published 2025)

Target: T1, human CTLA-4 (human, UniProt P16410 36-223)
T1 construct: whole, on cells; also called CHO/CTLA-4 cells
Assay: flow cytometry on CHO/CTLA-4 cells
Procedure: Binding affinity to CD28 was determined using primary human T cells which endogenously express CD28. Binding to PD-L1 was determined using SCC152 cells transduced with human PD-L1. Binding to CTLA-4 was measured using Chinese hamster ovary (CHO) cells stably transduced to express human CTLA-4.
For staining and analysis by flow cytometry, 75,000 human T cells, SCC152/PD-L1 cells, or CHO/CTLA-4 cells were plated in 96-well round-bottom plates. Cells were spun down and resuspended in staining buffer (PBS (phosphate buffered saline), 1% BSA (bovine serum albumin), 1 mM EDTA, and 0.1% sodium azide) for 20 minutes to block non-specific binding. Afterwards, cells were centrifuged, stain buffer aspirated, and then resuspended in 50 μL of a 1:5 serial dilution of each CD80-Fc candidate variant starting at 100 nM ending at 0.8 nM. Primary staining was performed on ice for 60 minutes, before washing cells in […] staining buffer three times. PE-conjugated anti-human Fc (Jackson ImmunoResearch, USA) was diluted 1:250 in 50 μL staining buffer and added to cells and incubated another 30 minutes at 4° C. Cells were washed two times in 150 μL stain buffer and then fixed in 2% formaldehyde/PBS for 5 minutes at room temperature. Samples were analyzed CytoFLEX LX flow cytometer (Beckman Coulter, USA). Median Fluorescence Intensity (MFI) was calculated for each cell type using the CytExpert software from Beckman Coulter.

T1 sequence (P16410 36-223): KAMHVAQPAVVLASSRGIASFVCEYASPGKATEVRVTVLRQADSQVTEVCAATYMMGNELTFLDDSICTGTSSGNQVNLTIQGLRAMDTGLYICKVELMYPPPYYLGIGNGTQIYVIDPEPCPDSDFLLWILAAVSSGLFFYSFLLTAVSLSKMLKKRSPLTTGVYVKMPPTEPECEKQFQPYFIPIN

MFI at 0.8 nM: 363000 MFI
MFI at 4 nM: 498000 MFI
MFI at 20 nM: 538000 MFI
MFI at 100 nM: 587000 MFI
fold change vs WT CD80 at 20 nM: 0.65 fold
B1: CD80_183 variant CD80 IgV-Fc (V11Y, T28Y, M47L, A71G, Y87R) (Fc fusion)
chain: VIHVTKEVKEYATLSCGHNVSVEELAQYRIYWQKEKKMVLTMMSGDLNIWPEYKNRTIFDITNNLSIVILGLRPSDEGTYECVVLKREKDAFKREHLAEVTLSVKADGSGGGGS[omitted - human IgG4 Fc with S228P (EU numbers)]
notes: also called CD80_183-Fc

MFI at 0.8 nM: 291000 MFI
MFI at 4 nM: 503000 MFI
MFI at 20 nM: 591000 MFI
MFI at 100 nM: 577000 MFI
fold change vs WT CD80 at 20 nM: 0.71 fold
B2: CD80_192 variant CD80 IgV-Fc (E7N, E35D, T101R) (Fc fusion)
chain: B1 chain with E7N, Y11V, Y28T, E35D, L47M, G71A, R87Y, T101R
notes: also called CD80_192-Fc

MFI at 0.8 nM: 921 MFI
MFI at 4 nM: 2480 MFI
MFI at 20 nM: 9750 MFI
MFI at 100 nM: 32400 MFI
fold change vs WT CD80 at 20 nM: 0.01 fold
B3: CD80_196 variant CD80 IgV-Fc (V11Y, M42W, E52K, T62A, L85E) (Fc fusion)
chain: B1 chain with Y28T, M42W, L47M, E52K, T62A, G71A, L85E, R87Y
notes: also called CD80_196-Fc

MFI at 0.8 nM: 159000 MFI
MFI at 4 nM: 282000 MFI
MFI at 20 nM: 345000 MFI
MFI at 100 nM: 423000 MFI
fold change vs WT CD80 at 20 nM: 0.42 fold
B4: CD80_201 variant CD80 IgV-Fc (E10G, H18Y, T28Y, M47W, T62S) (Fc fusion)
chain: B1 chain with E10G, Y11V, H18Y, L47W, T62S, G71A, R87Y
notes: also called CD80_201-Fc

MFI at 0.8 nM: 279000 MFI
MFI at 4 nM: 450000 MFI
MFI at 20 nM: 478000 MFI
MFI at 100 nM: 514000 MFI
fold change vs WT CD80 at 20 nM: 0.58 fold
B5: CD80_207 variant CD80 IgV-Fc (E35D, V68T, T101K) (Fc fusion)
chain: B1 chain with Y11V, Y28T, E35D, L47M, V68T, G71A, R87Y, T101K
notes: also called CD80_207-Fc

MFI at 0.8 nM: 6300 MFI
MFI at 4 nM: 22900 MFI
MFI at 20 nM: 75400 MFI
MFI at 100 nM: 201000 MFI
fold change vs WT CD80 at 20 nM: 0.09 fold
B6: CD80_198 variant CD80 IgV-Fc (H18Y, A26E, R29S, E35D, M47L, V68M, A71G, E77G, D90G) (Fc fusion)
chain: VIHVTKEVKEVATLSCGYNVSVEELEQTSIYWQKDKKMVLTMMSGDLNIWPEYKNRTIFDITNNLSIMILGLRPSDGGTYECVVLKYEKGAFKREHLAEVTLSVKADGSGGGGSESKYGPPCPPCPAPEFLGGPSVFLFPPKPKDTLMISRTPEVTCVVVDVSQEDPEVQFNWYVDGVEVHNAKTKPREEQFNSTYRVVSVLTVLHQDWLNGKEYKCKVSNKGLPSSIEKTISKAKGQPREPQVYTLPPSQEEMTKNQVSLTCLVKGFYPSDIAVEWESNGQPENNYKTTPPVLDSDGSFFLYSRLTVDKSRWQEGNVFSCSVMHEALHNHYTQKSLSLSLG
notes: also called CD80_198-Fc

MFI at 0.8 nM: 58600 MFI
MFI at 4 nM: 148000 MFI
MFI at 20 nM: 317000 MFI
MFI at 100 nM: 426000 MFI
fold change vs WT CD80 at 20 nM: 0.38 fold
B7: CD80_203 variant CD80 IgV-Fc (K9N, E10A, V11W, H18F, T28H, M47L, T62E, R73D) (Fc fusion)
chain: B1 chain with K9N, E10A, Y11W, H18F, Y28H, T62E, G71A, R73D, R87Y
notes: also called CD80_203-Fc

MFI at 0.8 nM: 13600 MFI
MFI at 4 nM: 43400 MFI
MFI at 20 nM: 149000 MFI
MFI at 100 nM: 399000 MFI
fold change vs WT CD80 at 20 nM: 0.18 fold
B8: CD80_193 variant CD80 IgV-Fc (V11Y, M42W, T62A, L85E) (Fc fusion)
chain: B1 chain with Y28T, M42W, L47M, T62A, G71A, L85E, R87Y
notes: also called CD80_193-Fc

MFI at 0.8 nM: 294000 MFI
MFI at 4 nM: 511000 MFI
MFI at 100 nM: 587000 MFI
fold change vs WT CD80 at 20 nM: 0.44 fold
B9: CD80_206 variant CD80 IgV-Fc (E10G, H18T, Q27T, D46E, M47L) (Fc fusion)
chain: B1 chain with E10G, Y11V, H18T, Q27T, Y28T, D46E, G71A, R87Y
notes: also called CD80_206-Fc

MFI at 0.8 nM: 20900 MFI
MFI at 4 nM: 77200 MFI
MFI at 20 nM: 237000 MFI
MFI at 100 nM: 452000 MFI
fold change vs WT CD80 at 20 nM: 0.29 fold
B10: CD80_215 variant CD80 IgV-Fc (K9R, E10A, E35G, V68L, L85E) (Fc fusion)
chain: B1 chain with K9R, E10A, Y11V, Y28T, E35G, L47M, V68L, G71A, L85E, R87Y
notes: also called CD80_215-Fc

MFI at 0.8 nM: 27800 MFI
MFI at 4 nM: 101000 MFI
MFI at 20 nM: 256000 MFI
MFI at 100 nM: 471000 MFI
fold change vs WT CD80 at 20 nM: 0.31 fold
B11: CD80_205 variant CD80 IgV-Fc (E10G, D46K, L85E) (Fc fusion)
chain: B1 chain with E10G, Y11V, Y28T, D46K, L47M, G71A, L85E, R87Y
notes: also called CD80_205-Fc

MFI at 0.8 nM: 104000 MFI
MFI at 4 nM: 251000 MFI
MFI at 20 nM: 509000 MFI
MFI at 100 nM: 559000 MFI
fold change vs WT CD80 at 20 nM: 0.61 fold
B12: CD80_194 variant CD80 IgV-Fc (V11Y, M42W, T62A) (Fc fusion)
chain: B1 chain with Y28T, M42W, L47M, T62A, G71A, R87Y
notes: also called CD80_194-Fc

MFI at 0.8 nM: 7990 MFI
MFI at 4 nM: 28000 MFI
MFI at 20 nM: 96300 MFI
MFI at 100 nM: 269000 MFI
fold change vs WT CD80 at 20 nM: 0.12 fold
B13: CD80_209 variant CD80 IgV-Fc (V11Y, T28R, E35G, M47L, F59S) (Fc fusion)
chain: B1 chain with Y28R, E35G, F59S, G71A, R87Y
notes: also called CD80_209-Fc; H5890

MFI at 0.8 nM: 263000 MFI
MFI at 4 nM: 419000 MFI
MFI at 20 nM: 458000 MFI
MFI at 100 nM: 488000 MFI
fold change vs WT CD80 at 20 nM: 0.55 fold
B14: CD80_202 variant CD80 IgV-Fc (E7H, H18L, V20I, T28Y, D46S, A71G) (Fc fusion)
chain: B1 chain with E7H, Y11V, H18L, V20I, D46S, L47M, R87Y
notes: also called CD80_202-Fc

MFI at 0.8 nM: 4680 MFI
MFI at 4 nM: 13800 MFI
MFI at 20 nM: 58400 MFI
MFI at 100 nM: 188000 MFI
fold change vs WT CD80 at 20 nM: 0.07 fold
B15: CD80_210 variant CD80 IgV-Fc (E7N, E35D, F59S) (Fc fusion)
chain: B1 chain with E7N, Y11V, Y28T, E35D, L47M, F59S, G71A, R87Y
notes: also called CD80_210-Fc

Positions count from the first letter of the chain named. Names may count otherwise. Each block holds one binder with its values, some of them ahead of it.
